Among the data in PMC4381594 are binding values, retold here.

Results are given in words; binding and its absence hold for the method and conditions named. Binding seen in cells or lysates may run through a third protein. Some results given as binding are weak or reduced against the parent protein; the word gives no strength. Where a sequence is shown, tags or fusion partners need not be part of it.

Assay [1] has as its target T1, XBP-1S, the active isoform of X-box binding protein 1 (human) (UniProt P17861).
T1 sequence: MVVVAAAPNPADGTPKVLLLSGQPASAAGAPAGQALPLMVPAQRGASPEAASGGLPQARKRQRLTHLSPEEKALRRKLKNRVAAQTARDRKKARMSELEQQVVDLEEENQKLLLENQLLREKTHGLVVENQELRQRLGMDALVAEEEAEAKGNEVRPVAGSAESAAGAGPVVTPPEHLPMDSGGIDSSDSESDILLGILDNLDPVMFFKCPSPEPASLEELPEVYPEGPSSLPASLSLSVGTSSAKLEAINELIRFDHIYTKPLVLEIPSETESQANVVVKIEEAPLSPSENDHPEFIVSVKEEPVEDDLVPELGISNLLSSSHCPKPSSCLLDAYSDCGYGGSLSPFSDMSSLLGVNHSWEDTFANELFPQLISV
Briefly: co-IP; 293T cells co-transfected with expression plasmids; lysates two days after transfection; IP with anti-XBP-1 antibody (Roche IP kit), Western blot (anti-GCN5 or anti-GFP); normal IgG as control. Background: In western blotting, separated proteins are transferred to a membrane and probed.

Assay [2] deals with general control nonderepressible 5 (GCN5) (human) (UniProt Q92830). Briefly: co-IP; 293T cells co-transfected with expression plasmids; lysates; IP with anti-GCN5 antibody, Western blot with anti-XBP-1 or anti-HA; normal IgG as control.

B1: GFP-tagged GCN5 truncation 456-837 a.a. (domain or fragment, UniProt Q92830 456-837)
chain: MELVNEVMLTITDPAAMLGPETSLLSANAARDETARLEERRGIIEFHVIGNSLTPKANRRVLLWLVGLQNVFSHQLPRMPKEYIARLVFDPKHKTLALIKDGRVIGGICFRMFPTQGFTEIVFCAVTSNEQVKGYGTHLMNHLKEYHIKHNILYFLTYADEYAIGYFKKQGFSKDIKVPKSRYLGYIKDYEGATLMECELNPRIPYTELSHIIKKQKEIIKKLIERKQAQIRKVYPGLSCFKEGVRQIPVESVPGIRETGWKPLGKEKGKELKDPDQLYTTLKNLLAQIKSHPSAWPFMEPVKKSEAPDYYEVIRFPIDLKTMTERLRSRYYVTRKLFVADLQRVIANCREYNPPDSEYCRCASALEKFFYFKLKEGGLIDK
As for B1, the binding result in assay [1] was “binds”.

B2: GFP-tagged PCAF truncation 1-700 a.a. (domain or fragment, UniProt Q92831 1-700)
chain: MSEAGGAGPGGCGAGAGAGAGPGALPPQPAALPPAPPQGSPCAAAAGGSGACGPATAVAAAGTAEGPGGGGSARIAVKKAQLRSAPRAKKLEKLGVYSACKAEESCKCNGWKNPNPSPTPPRADLQQIIVSLTESCRSCSHALAAHVSHLENVSEEEMNRLLGIVLDVEYLFTCVHKEEDADTKQVYFYLFKLLRKSILQRGKPVVEGSLEKKPPFEKPSIEQGVNNFVQYKFSHLPAKERQTIVELAKMFLNRINYWHLEAPSQRRLRSPNDDISGYKENYTRWLCYCNVPQFCDSLPRYETTQVFGRTLLRSVFTVMRRQLLEQARQEKDKLPLEKRTLILTHFPKFLSMLEEEVYSQNSPIWDQDFLSASSRTSQLGIQTVINPPPVAGTISYNSTSSSLEQPNAGSSSPACKASSGLEANPGEKRKMTDSHVLEEAKKPRVMGDIPMELINEVMSTITDPAAMLGPETNFLSAHSARDEAARLEERRGVIEFHVVGNSLNQKPNKKILMWLVGLQNVFSHQLPRMPKEYITRLVFDPKHKTLALIKDGRVIGGICFRMFPSQGFTEIVFCAVTSNEQVKGYGTHLMNHLKEYHIKHDILNFLTYADEYAIGYFKKQGFSKEIKIPKTKYVGYIKDYEGATLMGCELNPRIPYTEFSVIIKKQKEIIKKLIERKQAQIRKVYPGLSCFKDGVRQIPI
On to B2, for which the binding result in assay [1] is given as “binds”.

B3: GFP-tagged PCAF truncation 1-475 a.a. (domain or fragment, UniProt Q92831 1-475)
chain: MSEAGGAGPGGCGAGAGAGAGPGALPPQPAALPPAPPQGSPCAAAAGGSGACGPATAVAAAGTAEGPGGGGSARIAVKKAQLRSAPRAKKLEKLGVYSACKAEESCKCNGWKNPNPSPTPPRADLQQIIVSLTESCRSCSHALAAHVSHLENVSEEEMNRLLGIVLDVEYLFTCVHKEEDADTKQVYFYLFKLLRKSILQRGKPVVEGSLEKKPPFEKPSIEQGVNNFVQYKFSHLPAKERQTIVELAKMFLNRINYWHLEAPSQRRLRSPNDDISGYKENYTRWLCYCNVPQFCDSLPRYETTQVFGRTLLRSVFTVMRRQLLEQARQEKDKLPLEKRTLILTHFPKFLSMLEEEVYSQNSPIWDQDFLSASSRTSQLGIQTVINPPPVAGTISYNSTSSSLEQPNAGSSSPACKASSGLEANPGEKRKMTDSHVLEEAKKPRVMGDIPMELINEVMSTITDPAAMLGPETNFL
As for B3, the binding entry in assay [1] was “binds”.

B4: XBP-1S, the active isoform of X-box binding protein 1 (protein, UniProt P17861-2 1-376)
chain: MVVVAAAPNPADGTPKVLLLSGQPASAAGAPAGQALPLMVPAQRGASPEAASGGLPQARKRQRLTHLSPEEKALRRKLKNRVAAQTARDRKKARMSELEQQVVDLEEENQKLLLENQLLREKTHGLVVENQELRQRLGMDALVAEEEAEAKGNEVRPVAGSAESAAGAGPVVTPPEHLPMDSGGIDSSDSESDILLGILDNLDPVMFFKCPSPEPASLEELPEVYPEGPSSLPASLSLSVGTSSAKLEAINELIRFDHIYTKPLVLEIPSETESQANVVVKIEEAPLSPSENDHPEFIVSVKEEPVEDDLVPELGISNLLSSSHCPKPSSCLLDAYSDCGYGGSLSPFSDMSSLLGVNHSWEDTFANELFPQLISV
Consider B4, for which the binding entry in assay [2] is given as “binds”.

B5: HA-tagged XBP-1S (protein, UniProt P17861-2 1-376)
chain: MVVVAAAPNPADGTPKVLLLSGQPASAAGAPAGQALPLMVPAQRGASPEAASGGLPQARKRQRLTHLSPEEKALRRKLKNRVAAQTARDRKKARMSELEQQVVDLEEENQKLLLENQLLREKTHGLVVENQELRQRLGMDALVAEEEAEAKGNEVRPVAGSAESAAGAGPVVTPPEHLPMDSGGIDSSDSESDILLGILDNLDPVMFFKCPSPEPASLEELPEVYPEGPSSLPASLSLSVGTSSAKLEAINELIRFDHIYTKPLVLEIPSETESQANVVVKIEEAPLSPSENDHPEFIVSVKEEPVEDDLVPELGISNLLSSSHCPKPSSCLLDAYSDCGYGGSLSPFSDMSSLLGVNHSWEDTFANELFPQLISV
On to B5, for which, in assay [2], the binding entry was “binds”.

B6: GFP-tagged GCN5 truncation 1-700 a.a. (domain or fragment, UniProt Q92830 1-700)
chain: MAEPSQAPTPAPAAQPRPLQSPAPAPTPTPAPSPASAPIPTPTPAPAPAPAAAPAGSTGTGGPGVGSGGAGSGGDPARPGLSQQQRASQRKAQVRGLPRAKKLEKLGVFSACKANETCKCNGWKNPKPPTAPRMDLQQPAANLSELCRSCEHPLADHVSHLENVSEDEINRLLGMVVDVENLFMSVHKEEDTDTKQVYFYLFKLLRKCILQMTRPVVEGSLGSPPFEKPNIEQGVLNFVQYKFSHLAPRERQTMFELSKMFLLCLNYWKLETPAQFRQRSQAEDVATYKVNYTRWLCYCHVPQSCDSLPRYETTHVFGRSLLRSIFTVTRRQLLEKFRVEKDKLVPEKRTLILTHFPKFLSMLEEEIYGANSPIWESGFTMPPSEGTQLVPRPASVSAAVVPSTPIFSPSMGGGSNSSLSLDSAGAEPMPGEKRTLPENLTLEDAKRLRVMGDIPMELVNEVMLTITDPAAMLGPETSLLSANAARDETARLEERRGIIEFHVIGNSLTPKANRRVLLWLVGLQNVFSHQLPRMPKEYIARLVFDPKHKTLALIKDGRVIGGICFRMFPTQGFTEIVFCAVTSNEQVKGYGTHLMNHLKEYHIKHNILYFLTYADEYAIGYFKKQGFSKDIKVPKSRYLGYIKDYEGATLMECELNPRIPYTELSHIIKKQKEIIKKLIERKQAQIRKVYPGLSCFKEGV
With B6, the binding result in assay [1] is on record as “no binding”.

B7: GFP-tagged PCAF truncation 475-832 a.a. (domain or fragment, UniProt Q92831 475-832)
chain: LSAHSARDEAARLEERRGVIEFHVVGNSLNQKPNKKILMWLVGLQNVFSHQLPRMPKEYITRLVFDPKHKTLALIKDGRVIGGICFRMFPSQGFTEIVFCAVTSNEQVKGYGTHLMNHLKEYHIKHDILNFLTYADEYAIGYFKKQGFSKEIKIPKTKYVGYIKDYEGATLMGCELNPRIPYTEFSVIIKKQKEIIKKLIERKQAQIRKVYPGLSCFKDGVRQIPIESIPGIRETGWKPSGKEKSKEPRDPDQLYSTLKSILQQVKSHQSAWPFMEPVKRTEAPGYYEVIRFPMDLKTMSERLKNRYYVSKKLFMADLQRVFTNCKEYNPPESEYYKCANILEKFFFSKIKEAGLIDK
In the case of B7, the binding entry in assay [1] is “binds”.
